# In all, about 4,100 sequences were measured (“relative CpG methylation activity (normalised to average over all NNNCGNNN flanks)”: median about 0.94, highest 2% from about 1.9 on). The list shows a part of the results.
# Molecular target: DNMT3B catalytic domain (mouse) (UniProt O88509)
# Experiment: relative CpG methylation activity (normalised to average over all NNNCGNNN flanks) (relative (1 = mean)); higher = more methylation of the central CpG
# Details: system: in vitro, murine catalytic domain; CpG state: hemimethylated substrate pool; residues: 558-859
# Outline: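 Pooled dsDNA substrates with a central CpG inside 10 random flanking nucleotides were methylated by murine DNMT3A or DNMT3B catalytic domain with 0.8 mM S-adenosyl-L-methionine in HEPES pH 7.5 buffer for 60 min at 37 °C. The DNA then went through proteinase K, BsaI-HFv2 digestion, hairpin ligation, bisulfite conversion and two-step PCR before Illumina sequencing. Relative methylation activity is the average methylation of each context with three flanking bases per side, divided by the mean over all contexts. Each experiment had two independent repeats.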
# Chain of UniProt O88509 (O88509 558-859): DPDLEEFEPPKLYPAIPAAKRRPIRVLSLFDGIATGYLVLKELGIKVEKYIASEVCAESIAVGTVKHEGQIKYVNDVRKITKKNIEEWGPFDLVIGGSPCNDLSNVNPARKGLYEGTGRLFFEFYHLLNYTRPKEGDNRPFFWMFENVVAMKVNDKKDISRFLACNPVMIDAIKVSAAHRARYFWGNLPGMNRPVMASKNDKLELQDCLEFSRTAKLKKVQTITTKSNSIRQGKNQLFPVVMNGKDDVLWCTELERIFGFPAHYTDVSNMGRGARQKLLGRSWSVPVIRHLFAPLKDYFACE
row,Sequence,relative CpG methylation activity
1,GTACGGAC,1.51
2,CGCCGATG,0.876
3,GGACGCGC,1.08
4,CTTCGTGT,0.534
5,TGGCGATT,1.03
6,AACCGCGC,0.323
7,AGACGACC,1.36
8,GTGCGTCC,1
9,CGGCGATA,0.906
10,GTTCGTCT,0.748
11,GATCGGAC,0.703
12,GATCGTGT,0.224
13,ACACGCGG,1.1
14,ATGCGGAA,0.874
15,CTCCGTTG,0.425
16,CCGCGAAA,0.93
17,AGCCGTGC,0.123
18,TAGCGAGT,1.07
19,AATCGCAA,0.359
20,CTTCGGGG,1.54
21,CAGCGAAA,0.939
22,AGGCGGTA,0.481
23,AGACGCGC,1.2
24,TTGCGAAG,0.966
25,GTCCGCTA,0.847

row,Sequence,relative CpG methylation activity
1,CAACGCTG,1.28
2,CCGCGGCC,1.3
3,ATCCGGTC,1.28
4,GACCGTGC,0.31
5,ACTCGTAT,0.275
6,TTCCGCCC,1.35
7,GAGCGAAA,0.801
8,AACCGATT,1.2
9,ACTCGTTA,0.3
10,GCCCGTCG,0.607
11,AAGCGTTC,0.586
12,CGACGTCA,0.716
13,GGACGGGG,1.23
14,CTGCGCAT,0.967
15,ACACGAAC,1.71
16,GACCGTTT,0.177
17,GCCCGATT,1.53
18,CTTCGGAA,1.22
19,CCGCGCCT,0.73
20,AAGCGCCG,0.713
21,GGACGAAA,1.19
22,CAGCGGTT,1.06
23,AGTCGGTT,1.27
24,AAGCGATG,0.771
25,CGTCGCCC,1.09

row,Sequence,relative CpG methylation activity
1,TTTCGACT,1.54
2,TCACGTGG,0.466
3,GACCGGTT,0.949
4,AGCCGACA,0.675
5,CTTCGCCT,1.22
6,GGACGCAT,0.454
7,TAACGCTT,1.19
8,TAGCGAGC,1.26
9,CGTCGCTA,0.476
10,TAACGCTC,1.54
11,ACGCGACG,0.786
12,TTTCGCAG,0.732
13,TGCCGTAA,0.264
14,ATTCGGCT,1.69
15,TCCCGGTG,1.36
16,TTGCGGGA,1.34
17,TTGCGGGC,1.4
18,GACCGGAT,0.42
19,GTGCGTCG,0.758
20,ACCCGTGC,0.783
21,TTCCGATG,1.47
22,CAGCGACC,0.972
23,GGTCGTCT,0.505
24,GCTCGCGG,0.289
25,CTGCGATC,1.46

row,Sequence,relative CpG methylation activity
1,TATCGGAG,0.733
2,TCACGGCG,1.89
3,TCTCGGTT,0.917
4,TAACGGTC,1.52
5,TAACGCCC,1.56
6,GGCCGTTC,0.252
7,TGTCGCAA,0.427
8,GTCCGATA,1.62
9,CCCCGGTA,1.5
10,AAACGACC,1.48
11,GTTCGCCT,1.22
12,GCACGGTT,1.31
13,CAACGCAC,1.21
14,CGCCGGAT,0.504
15,CCCCGAAT,1.61
16,CTACGCTA,1.47
17,CATCGGGG,1.21
18,TATCGCAC,0.634
19,CTTCGCTG,1.06
20,AAGCGCAG,0.241
21,CTGCGTCG,1.08
22,AGGCGGGG,0.357
23,CTCCGTTA,0.542
24,CATCGAGG,1.71
25,GAACGATT,1.71

row,Sequence,relative CpG methylation activity
1,TGCCGTTG,0.159
2,AGACGGGA,1.28
3,CCACGCCC,1.47
4,CCCCGGAA,1.02
5,CCACGCTC,1.44
6,AAGCGGAC,0.569
7,GACCGCGC,0.39
8,AACCGCTT,0.34
9,ATTCGCTG,0.586
10,GTCCGAGG,1.82
11,TTGCGTGT,0.841
12,AAGCGTTA,0.394
13,CCTCGTCT,0.775
14,GGTCGATC,1.48
15,TCACGACT,1.44
16,TCACGCAA,0.748
17,TGGCGTGT,0.0208
18,CCCCGGAG,0.625
19,TTGCGAAC,1.41
20,CGCCGGTC,1.23
21,GGTCGGTG,0.742
22,ACCCGTTC,0.948
23,AACCGCAT,0.311
24,CGTCGTAC,0.909
25,TAGCGCCC,0.741

row,Sequence,relative CpG methylation activity
1,CATCGGAG,0.952
2,AGTCGTTT,0.495
3,TATCGTTC,0.641
4,GCTCGGCC,1.64
5,AATCGGGA,1.26
6,CTACGTAA,1.32
7,TGCCGACG,0.593
8,TAACGATA,1.81
9,GGTCGAAA,1.08
10,CAGCGTAT,0.615
11,ATTCGAAG,0.959
12,CTACGGAA,1.68
13,TAACGTAT,0.983
14,TTCCGGAG,0.913
15,AACCGGAG,0.433
16,TGGCGGCC,0.876
17,CGGCGGTG,0.397
18,GTTCGTCA,0.524
19,TTTCGGCT,2.04
20,CACCGCCG,0.625
21,TCGCGCCT,0.882
22,GGACGGTC,1.37
23,AGTCGCTG,0.623
24,TAGCGTAG,0.69
25,TAGCGGGA,1.02

row,Sequence,relative CpG methylation activity
1,CCCCGATC,1.88
2,GAGCGGGT,0.902
3,GCCCGACT,1.33
4,TCGCGGTG,0.846
5,CTTCGTTC,1.18
6,TGGCGAGT,0.781
7,ATACGGTA,1.64
8,GGTCGCAA,0.259
9,TTGCGATT,1.32
10,CTCCGGCA,1.88
11,CAGCGTAC,0.833
12,TACCGTGT,0.198
13,CGCCGTAC,0.561
14,CTACGCGC,1.73
15,CCGCGATG,0.901
16,TTACGTTT,1.19
17,CAACGCCG,1.32
18,ACACGTTG,0.587
19,TACCGCAA,0.249
20,CTCCGTAA,0.725
21,AAGCGGAG,0.321
22,TGCCGCCT,0.358

# Reference: the supplement of paper PMC7335073
